From publication PMC9911399, “Two distinct binding modes provide the RNA-binding protein RbFox with extraordinary sequence specificity”
Numbering of substitutions follows the chain as printed; changes in the protein carry UniProt numbers. The list shows a part of the results.

T1: RBFOX1 RRM RbFoxmut (Fox-RRM*) (Homo sapiens, UniProt Q9NWB1 109-208, R118D;E147R;N151S;E152T)
T1 sequence: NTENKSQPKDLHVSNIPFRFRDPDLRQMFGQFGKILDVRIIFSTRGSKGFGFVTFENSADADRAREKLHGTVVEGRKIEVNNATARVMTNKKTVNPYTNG

B1: CACGCAU (DNA:RNA)
RNA: GGGAGACCGGAAUUCAGAUUGUCCCACGCAUUUAAAUCCCGUCGUAGCCACCA
DNA 1: CAATCTGAATTCCGGTCTCCC
DNA 2: TGGTGGCTACGACGGGATT
B2: UACUGCC (DNA:RNA)
RNA: B1 RNA with C25U, G28U, C29G, A30C, U31C
DNA 1: CAATCTGAATTCCGGTCTCCC
DNA 2: TGGTGGCTACGACGGGATT
B3: GUCAGAU (DNA:RNA)
RNA: B1 RNA with C25G, A26U, G28A, C29G
DNA 1: CAATCTGAATTCCGGTCTCCC
DNA 2: TGGTGGCTACGACGGGATT
B4: ACCUGAA (DNA:RNA)
RNA: B1 RNA with C25A, A26C, G28U, C29G, U31A
DNA 1: CAATCTGAATTCCGGTCTCCC
DNA 2: TGGTGGCTACGACGGGATT
B5: ACCCGAU (DNA:RNA)
RNA: B1 RNA with C25A, A26C, G28C, C29G
DNA 1: CAATCTGAATTCCGGTCTCCC
DNA 2: TGGTGGCTACGACGGGATT
B6: UCCGCUC (DNA:RNA)
RNA: B1 RNA with C25U, A26C, A30U, U31C
DNA 1: CAATCTGAATTCCGGTCTCCC
DNA 2: TGGTGGCTACGACGGGATT
B7: AUAGGCG (DNA:RNA)
RNA: B1 RNA with C25A, A26U, C27A, C29G, A30C, U31G
DNA 1: CAATCTGAATTCCGGTCTCCC
DNA 2: TGGTGGCTACGACGGGATT
B8: CCCGAGG (DNA:RNA)
RNA: B1 RNA with A26C, C29A, A30G, U31G
DNA 1: CAATCTGAATTCCGGTCTCCC
DNA 2: TGGTGGCTACGACGGGATT
B9: GCUAAGA (DNA:RNA)
RNA: GGGAGACCGGAAUUCAGAUUGUCCGCUAAGAUUAAAUCCCGUCGUAGCCACCA
DNA 1: CAATCTGAATTCCGGTCTCCC
DNA 2: TGGTGGCTACGACGGGATT
B10: CGAUUCA (DNA:RNA)
RNA: B1 RNA with A26G, C27A, G28U, C29U, A30C, U31A
DNA 1: CAATCTGAATTCCGGTCTCCC
DNA 2: TGGTGGCTACGACGGGATT
B11: CUAAAGG (DNA:RNA)
RNA: B9 RNA with G25C, C26U, U27A, A31G
DNA 1: CAATCTGAATTCCGGTCTCCC
DNA 2: TGGTGGCTACGACGGGATT
B12: UAUUUCA (DNA:RNA)
RNA: B9 RNA with G25U, C26A, A28U, A29U, G30C
DNA 1: CAATCTGAATTCCGGTCTCCC
DNA 2: TGGTGGCTACGACGGGATT
B13: AUAGUAC (DNA:RNA)
RNA: B1 RNA with C25A, A26U, C27A, C29U, U31C
DNA 1: CAATCTGAATTCCGGTCTCCC
DNA 2: TGGTGGCTACGACGGGATT
B14: ACUUCUG (DNA:RNA)
RNA: B9 RNA with G25A, A28U, A29C, G30U, A31G
DNA 1: CAATCTGAATTCCGGTCTCCC
DNA 2: TGGTGGCTACGACGGGATT
B15: GUGAGAC (DNA:RNA)
RNA: B9 RNA with C26U, U27G, A29G, G30A, A31C
DNA 1: CAATCTGAATTCCGGTCTCCC
DNA 2: TGGTGGCTACGACGGGATT
B16: AAAAAGC (DNA:RNA)
RNA: B9 RNA with G25A, C26A, U27A, A31C
DNA 1: CAATCTGAATTCCGGTCTCCC
DNA 2: TGGTGGCTACGACGGGATT
B17: GCCCACC (DNA:RNA)
RNA: B9 RNA with U27C, A28C, G30C, A31C
DNA 1: CAATCTGAATTCCGGTCTCCC
DNA 2: TGGTGGCTACGACGGGATT
B18: CUUUAUG (DNA:RNA)
RNA: B9 RNA with G25C, C26U, A28U, G30U, A31G
DNA 1: CAATCTGAATTCCGGTCTCCC
DNA 2: TGGTGGCTACGACGGGATT
B19: UGGGCCU (DNA:RNA)
RNA: B1 RNA with C25U, A26G, C27G, A30C
DNA 1: CAATCTGAATTCCGGTCTCCC
DNA 2: TGGTGGCTACGACGGGATT
B20: CCGGGUU (DNA:RNA)
RNA: B1 RNA with A26C, C27G, C29G, A30U
DNA 1: CAATCTGAATTCCGGTCTCCC
DNA 2: TGGTGGCTACGACGGGATT
B21: GCAGUUG (DNA:RNA)
RNA: B9 RNA with U27A, A28G, A29U, G30U, A31G
DNA 1: CAATCTGAATTCCGGTCTCCC
DNA 2: TGGTGGCTACGACGGGATT
B22: CAUCGAG (DNA:RNA)
RNA: B1 RNA with C27U, G28C, C29G, U31G
DNA 1: CAATCTGAATTCCGGTCTCCC
DNA 2: TGGTGGCTACGACGGGATT
B23: CUAGCCU (DNA:RNA)
RNA: B1 RNA with A26U, C27A, A30C
DNA 1: CAATCTGAATTCCGGTCTCCC
DNA 2: TGGTGGCTACGACGGGATT
B24: GACAAGA (DNA:RNA)
RNA: B9 RNA with C26A, U27C
DNA 1: CAATCTGAATTCCGGTCTCCC
DNA 2: TGGTGGCTACGACGGGATT
B25: CCGUAGU (DNA:RNA)
RNA: B9 RNA with G25C, U27G, A28U, A31U
DNA 1: CAATCTGAATTCCGGTCTCCC
DNA 2: TGGTGGCTACGACGGGATT
B26: CCCGCUU (DNA:RNA)
RNA: B1 RNA with A26C, A30U
DNA 1: CAATCTGAATTCCGGTCTCCC
DNA 2: TGGTGGCTACGACGGGATT
B27: AGCUGAG (DNA:RNA)
RNA: B1 RNA with C25A, A26G, G28U, C29G, U31G
DNA 1: CAATCTGAATTCCGGTCTCCC
DNA 2: TGGTGGCTACGACGGGATT
B28: CAGGCUA (DNA:RNA)
RNA: B1 RNA with C27G, A30U, U31A
DNA 1: CAATCTGAATTCCGGTCTCCC
DNA 2: TGGTGGCTACGACGGGATT
B29: CGUGAUC (DNA:RNA)
RNA: B1 RNA with A26G, C27U, C29A, A30U, U31C
DNA 1: CAATCTGAATTCCGGTCTCCC
DNA 2: TGGTGGCTACGACGGGATT
B30: UAAACAG (DNA:RNA)
RNA: B1 RNA with C25U, C27A, G28A, U31G
DNA 1: CAATCTGAATTCCGGTCTCCC
DNA 2: TGGTGGCTACGACGGGATT
B31: CCCGAAA (DNA:RNA)
RNA: B1 RNA with A26C, C29A, U31A
DNA 1: CAATCTGAATTCCGGTCTCCC
DNA 2: TGGTGGCTACGACGGGATT

The binders below were run against T1, RBFOX1 RRM RbFoxmut (Fox-RRM*) (assay: EMSA; HiTS-Eq, 1 nM pool, 10 min; buffer printed only for the single-RNA assays: 10 mM Tris pH 7.5, 150 mM NaCl, 3.4 mM EDTA, 0.001% NP-40, 30 C). Settings: tags: His6 N-terminal (pET28a); label: 5' 32P.
Procedure, shortened: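 Purified wild-type or mutant RbFox RRM at increasing concentrations was equilibrated with 1 nM of 5′-radiolabelled RNA carrying 7 randomized nucleotides for 10 min in 50 µL. Unbound RNA was separated by 8% native PAGE and sequenced. Relative association constants came from read-count changes of each RNA species compared with the control reaction, normalised to the cognate motif.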

| Binder | binding signal |
| --- | --- |
| B1 | 0.147 KA relative to UGCAUGU |
| B2 | 0.217 KA relative to UGCAUGU |
| B3 | 0.0887 KA relative to UGCAUGU |
| B4 | 0.0825 KA relative to UGCAUGU |
| B5 | 0.106 KA relative to UGCAUGU |
| B6 | 0.0521 KA relative to UGCAUGU |
| B7 | 0.122 KA relative to UGCAUGU |
| B8 | 0.0701 KA relative to UGCAUGU |
| B9 | 0.12 KA relative to UGCAUGU |
| B10 | 0.102 KA relative to UGCAUGU |
| B11 | 0.0795 KA relative to UGCAUGU |
| B12 | 0.117 KA relative to UGCAUGU |
| B13 | 0.131 KA relative to UGCAUGU |
| B14 | 0.0582 KA relative to UGCAUGU |
| B15 | 0.08 KA relative to UGCAUGU |
| B16 | 0.0699 KA relative to UGCAUGU |

| Binder | binding signal |
| --- | --- |
| B17 | 0.0889 KA relative to UGCAUGU |
| B18 | 0.158 KA relative to UGCAUGU |
| B19 | 0.102 KA relative to UGCAUGU |
| B20 | 0.112 KA relative to UGCAUGU |
| B21 | 0.103 KA relative to UGCAUGU |
| B22 | 0.0932 KA relative to UGCAUGU |
| B23 | 0.0877 KA relative to UGCAUGU |
| B24 | 0.0519 KA relative to UGCAUGU |
| B25 | 0.137 KA relative to UGCAUGU |
| B26 | 0.0512 KA relative to UGCAUGU |
| B27 | 0.101 KA relative to UGCAUGU |
| B28 | 0.0916 KA relative to UGCAUGU |
| B29 | 0.118 KA relative to UGCAUGU |
| B30 | 0.0612 KA relative to UGCAUGU |
| B31 | 0.059 KA relative to UGCAUGU |
